# Some of these densities may be calculated back from excess volumes.
# Test: xn = mol fraction of the nth substance listed
# Settings: 100 kPa, x2 = 0.5
SMILES,mass density (293.15 K) [kg/m3],mass density (303.15 K) [kg/m3],mass density (313.15 K) [kg/m3],mass density (323.15 K) [kg/m3],mass density (333.15 K) [kg/m3],mass density (343.15 K) [kg/m3],mass density (353.15 K) [kg/m3]
CCCCCCCCn1cc[n+](C)c1C.F[P-](F)(F)(F)(F)F + CCCCCCCC[n+]1ccn(C)c1.F[P-](F)(F)(F)(F)F,1170.4,1163,1156,1148.4,–,–,–
CCCCCCCC[n+]1ccn(C)c1C.F[B-](F)(F)F + CCCCCCCC[n+]1ccn(C)c1.F[P-](F)(F)(F)(F)F,1238.8,1232.4,1223.9,1216.5,1209.6,1202.8,1195.2
